For eight molecules, binding results are on record in article PMC8748822.

Protein sequences, listed by entry. Tags and fused reporters are not part of them. Lines headed by an entry give the natural chain unless they say otherwise; changes in a name come on top. Chains listed by the source or under a name are the forms on record and can include a tag or linker.
UniProt Q9UIV1: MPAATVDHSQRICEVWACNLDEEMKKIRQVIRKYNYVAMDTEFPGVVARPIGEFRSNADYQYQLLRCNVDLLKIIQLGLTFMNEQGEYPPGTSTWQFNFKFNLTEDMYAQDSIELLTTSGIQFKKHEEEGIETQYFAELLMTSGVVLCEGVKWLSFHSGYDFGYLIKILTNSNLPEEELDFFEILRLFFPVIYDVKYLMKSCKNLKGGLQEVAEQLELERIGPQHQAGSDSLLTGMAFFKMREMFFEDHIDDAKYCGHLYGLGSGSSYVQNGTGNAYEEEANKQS
UniProt Q9UK61: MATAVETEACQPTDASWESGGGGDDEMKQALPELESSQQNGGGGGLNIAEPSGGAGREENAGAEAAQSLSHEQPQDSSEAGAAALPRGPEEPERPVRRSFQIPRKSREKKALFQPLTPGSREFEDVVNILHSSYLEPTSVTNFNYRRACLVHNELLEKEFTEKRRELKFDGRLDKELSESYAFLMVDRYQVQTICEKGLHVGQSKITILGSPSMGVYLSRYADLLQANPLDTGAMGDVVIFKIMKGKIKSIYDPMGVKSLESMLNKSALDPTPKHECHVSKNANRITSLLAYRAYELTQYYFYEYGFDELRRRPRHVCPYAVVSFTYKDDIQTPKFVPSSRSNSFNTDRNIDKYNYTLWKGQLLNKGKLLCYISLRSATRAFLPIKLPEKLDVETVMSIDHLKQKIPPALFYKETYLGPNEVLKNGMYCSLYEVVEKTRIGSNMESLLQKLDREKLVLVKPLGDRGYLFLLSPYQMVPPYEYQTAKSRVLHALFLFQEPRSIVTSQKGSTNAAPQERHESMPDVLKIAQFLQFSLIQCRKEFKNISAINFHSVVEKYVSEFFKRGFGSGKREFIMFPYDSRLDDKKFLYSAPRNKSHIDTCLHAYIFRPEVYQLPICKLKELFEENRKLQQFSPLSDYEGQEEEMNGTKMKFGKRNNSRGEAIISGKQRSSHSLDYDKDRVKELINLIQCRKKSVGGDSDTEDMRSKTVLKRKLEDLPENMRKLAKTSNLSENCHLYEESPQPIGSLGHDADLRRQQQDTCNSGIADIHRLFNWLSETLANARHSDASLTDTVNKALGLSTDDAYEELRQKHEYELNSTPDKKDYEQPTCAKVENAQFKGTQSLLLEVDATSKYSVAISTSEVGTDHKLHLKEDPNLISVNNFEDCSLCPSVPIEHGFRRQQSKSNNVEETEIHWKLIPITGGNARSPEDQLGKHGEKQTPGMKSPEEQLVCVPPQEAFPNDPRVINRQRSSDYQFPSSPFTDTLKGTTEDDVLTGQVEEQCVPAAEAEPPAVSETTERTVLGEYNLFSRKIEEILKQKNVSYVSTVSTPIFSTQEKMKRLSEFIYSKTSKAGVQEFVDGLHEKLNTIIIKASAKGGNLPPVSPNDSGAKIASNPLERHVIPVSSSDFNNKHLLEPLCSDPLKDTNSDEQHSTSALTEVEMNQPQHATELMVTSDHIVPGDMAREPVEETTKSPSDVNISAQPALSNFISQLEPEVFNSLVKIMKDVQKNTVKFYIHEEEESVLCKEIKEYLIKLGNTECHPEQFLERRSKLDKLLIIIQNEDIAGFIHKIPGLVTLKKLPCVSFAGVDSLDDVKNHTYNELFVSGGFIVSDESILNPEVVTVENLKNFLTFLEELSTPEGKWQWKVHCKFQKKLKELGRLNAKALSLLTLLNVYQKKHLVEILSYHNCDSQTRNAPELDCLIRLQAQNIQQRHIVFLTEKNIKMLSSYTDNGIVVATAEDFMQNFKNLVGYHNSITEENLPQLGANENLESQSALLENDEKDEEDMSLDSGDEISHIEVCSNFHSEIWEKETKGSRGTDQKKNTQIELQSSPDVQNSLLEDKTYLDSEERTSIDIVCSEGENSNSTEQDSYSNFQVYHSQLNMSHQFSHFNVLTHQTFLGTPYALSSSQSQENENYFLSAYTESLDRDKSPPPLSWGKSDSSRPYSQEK
TASOR-DDK (pLenti-TASOR-myc-DDK) (Q9UK61, form named): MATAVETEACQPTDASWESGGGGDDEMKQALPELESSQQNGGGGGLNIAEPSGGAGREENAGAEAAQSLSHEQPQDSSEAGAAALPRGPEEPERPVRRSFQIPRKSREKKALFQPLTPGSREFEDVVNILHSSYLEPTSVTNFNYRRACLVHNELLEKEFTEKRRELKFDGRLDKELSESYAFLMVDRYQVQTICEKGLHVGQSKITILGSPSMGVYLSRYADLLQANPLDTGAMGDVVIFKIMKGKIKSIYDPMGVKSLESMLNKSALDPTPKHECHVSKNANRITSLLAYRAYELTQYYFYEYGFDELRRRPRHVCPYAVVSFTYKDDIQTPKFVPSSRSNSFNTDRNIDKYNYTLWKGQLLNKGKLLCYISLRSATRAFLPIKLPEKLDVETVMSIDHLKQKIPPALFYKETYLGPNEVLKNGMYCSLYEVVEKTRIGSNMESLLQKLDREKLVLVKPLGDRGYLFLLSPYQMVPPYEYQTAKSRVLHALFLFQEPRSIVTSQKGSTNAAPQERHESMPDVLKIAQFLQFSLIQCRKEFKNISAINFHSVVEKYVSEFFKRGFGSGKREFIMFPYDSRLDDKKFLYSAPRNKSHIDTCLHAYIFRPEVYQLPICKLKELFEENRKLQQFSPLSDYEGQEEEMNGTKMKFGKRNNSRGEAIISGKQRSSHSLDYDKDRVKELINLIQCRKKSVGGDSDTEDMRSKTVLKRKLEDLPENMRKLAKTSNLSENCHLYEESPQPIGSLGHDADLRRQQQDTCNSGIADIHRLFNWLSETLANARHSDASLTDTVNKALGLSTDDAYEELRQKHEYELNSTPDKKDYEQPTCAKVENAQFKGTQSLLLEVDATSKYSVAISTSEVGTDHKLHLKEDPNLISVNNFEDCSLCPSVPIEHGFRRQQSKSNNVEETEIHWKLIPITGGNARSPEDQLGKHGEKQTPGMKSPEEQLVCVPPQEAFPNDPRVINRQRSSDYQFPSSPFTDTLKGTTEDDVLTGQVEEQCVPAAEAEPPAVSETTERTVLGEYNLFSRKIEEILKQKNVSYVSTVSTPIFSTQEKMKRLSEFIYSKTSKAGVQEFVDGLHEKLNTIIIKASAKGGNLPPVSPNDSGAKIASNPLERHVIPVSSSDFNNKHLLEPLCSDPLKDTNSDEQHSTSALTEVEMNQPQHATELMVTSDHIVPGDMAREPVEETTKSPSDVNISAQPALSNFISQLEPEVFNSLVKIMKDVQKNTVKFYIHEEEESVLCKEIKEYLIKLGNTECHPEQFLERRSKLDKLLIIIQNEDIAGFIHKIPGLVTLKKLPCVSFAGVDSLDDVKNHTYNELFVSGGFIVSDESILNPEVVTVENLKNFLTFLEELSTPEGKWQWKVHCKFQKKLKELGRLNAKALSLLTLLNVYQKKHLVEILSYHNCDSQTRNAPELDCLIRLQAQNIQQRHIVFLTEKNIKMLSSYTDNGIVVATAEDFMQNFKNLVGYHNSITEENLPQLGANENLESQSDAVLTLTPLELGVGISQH
UniProt Q99549: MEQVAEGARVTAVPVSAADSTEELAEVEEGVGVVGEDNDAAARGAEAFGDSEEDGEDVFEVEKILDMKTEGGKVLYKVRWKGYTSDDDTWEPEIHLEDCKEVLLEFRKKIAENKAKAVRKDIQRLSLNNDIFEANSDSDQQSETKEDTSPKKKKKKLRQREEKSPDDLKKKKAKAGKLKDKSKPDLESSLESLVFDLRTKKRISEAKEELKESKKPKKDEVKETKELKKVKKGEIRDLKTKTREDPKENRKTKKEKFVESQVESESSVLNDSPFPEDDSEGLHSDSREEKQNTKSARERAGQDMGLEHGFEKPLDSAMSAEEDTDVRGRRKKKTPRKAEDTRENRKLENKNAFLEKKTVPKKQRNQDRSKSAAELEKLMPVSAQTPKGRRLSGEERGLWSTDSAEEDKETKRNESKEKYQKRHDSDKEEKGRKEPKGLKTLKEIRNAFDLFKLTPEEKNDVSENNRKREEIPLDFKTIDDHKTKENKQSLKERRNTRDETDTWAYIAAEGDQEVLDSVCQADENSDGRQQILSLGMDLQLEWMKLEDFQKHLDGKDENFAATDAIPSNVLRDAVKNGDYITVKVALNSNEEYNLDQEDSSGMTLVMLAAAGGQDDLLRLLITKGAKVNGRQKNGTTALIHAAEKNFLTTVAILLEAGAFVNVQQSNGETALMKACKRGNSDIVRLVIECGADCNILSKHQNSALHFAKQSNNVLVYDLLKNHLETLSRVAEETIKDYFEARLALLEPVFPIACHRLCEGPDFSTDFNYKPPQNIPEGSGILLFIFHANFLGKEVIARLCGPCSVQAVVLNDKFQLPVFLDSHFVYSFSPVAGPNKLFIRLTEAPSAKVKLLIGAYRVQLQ
UniProt O60293: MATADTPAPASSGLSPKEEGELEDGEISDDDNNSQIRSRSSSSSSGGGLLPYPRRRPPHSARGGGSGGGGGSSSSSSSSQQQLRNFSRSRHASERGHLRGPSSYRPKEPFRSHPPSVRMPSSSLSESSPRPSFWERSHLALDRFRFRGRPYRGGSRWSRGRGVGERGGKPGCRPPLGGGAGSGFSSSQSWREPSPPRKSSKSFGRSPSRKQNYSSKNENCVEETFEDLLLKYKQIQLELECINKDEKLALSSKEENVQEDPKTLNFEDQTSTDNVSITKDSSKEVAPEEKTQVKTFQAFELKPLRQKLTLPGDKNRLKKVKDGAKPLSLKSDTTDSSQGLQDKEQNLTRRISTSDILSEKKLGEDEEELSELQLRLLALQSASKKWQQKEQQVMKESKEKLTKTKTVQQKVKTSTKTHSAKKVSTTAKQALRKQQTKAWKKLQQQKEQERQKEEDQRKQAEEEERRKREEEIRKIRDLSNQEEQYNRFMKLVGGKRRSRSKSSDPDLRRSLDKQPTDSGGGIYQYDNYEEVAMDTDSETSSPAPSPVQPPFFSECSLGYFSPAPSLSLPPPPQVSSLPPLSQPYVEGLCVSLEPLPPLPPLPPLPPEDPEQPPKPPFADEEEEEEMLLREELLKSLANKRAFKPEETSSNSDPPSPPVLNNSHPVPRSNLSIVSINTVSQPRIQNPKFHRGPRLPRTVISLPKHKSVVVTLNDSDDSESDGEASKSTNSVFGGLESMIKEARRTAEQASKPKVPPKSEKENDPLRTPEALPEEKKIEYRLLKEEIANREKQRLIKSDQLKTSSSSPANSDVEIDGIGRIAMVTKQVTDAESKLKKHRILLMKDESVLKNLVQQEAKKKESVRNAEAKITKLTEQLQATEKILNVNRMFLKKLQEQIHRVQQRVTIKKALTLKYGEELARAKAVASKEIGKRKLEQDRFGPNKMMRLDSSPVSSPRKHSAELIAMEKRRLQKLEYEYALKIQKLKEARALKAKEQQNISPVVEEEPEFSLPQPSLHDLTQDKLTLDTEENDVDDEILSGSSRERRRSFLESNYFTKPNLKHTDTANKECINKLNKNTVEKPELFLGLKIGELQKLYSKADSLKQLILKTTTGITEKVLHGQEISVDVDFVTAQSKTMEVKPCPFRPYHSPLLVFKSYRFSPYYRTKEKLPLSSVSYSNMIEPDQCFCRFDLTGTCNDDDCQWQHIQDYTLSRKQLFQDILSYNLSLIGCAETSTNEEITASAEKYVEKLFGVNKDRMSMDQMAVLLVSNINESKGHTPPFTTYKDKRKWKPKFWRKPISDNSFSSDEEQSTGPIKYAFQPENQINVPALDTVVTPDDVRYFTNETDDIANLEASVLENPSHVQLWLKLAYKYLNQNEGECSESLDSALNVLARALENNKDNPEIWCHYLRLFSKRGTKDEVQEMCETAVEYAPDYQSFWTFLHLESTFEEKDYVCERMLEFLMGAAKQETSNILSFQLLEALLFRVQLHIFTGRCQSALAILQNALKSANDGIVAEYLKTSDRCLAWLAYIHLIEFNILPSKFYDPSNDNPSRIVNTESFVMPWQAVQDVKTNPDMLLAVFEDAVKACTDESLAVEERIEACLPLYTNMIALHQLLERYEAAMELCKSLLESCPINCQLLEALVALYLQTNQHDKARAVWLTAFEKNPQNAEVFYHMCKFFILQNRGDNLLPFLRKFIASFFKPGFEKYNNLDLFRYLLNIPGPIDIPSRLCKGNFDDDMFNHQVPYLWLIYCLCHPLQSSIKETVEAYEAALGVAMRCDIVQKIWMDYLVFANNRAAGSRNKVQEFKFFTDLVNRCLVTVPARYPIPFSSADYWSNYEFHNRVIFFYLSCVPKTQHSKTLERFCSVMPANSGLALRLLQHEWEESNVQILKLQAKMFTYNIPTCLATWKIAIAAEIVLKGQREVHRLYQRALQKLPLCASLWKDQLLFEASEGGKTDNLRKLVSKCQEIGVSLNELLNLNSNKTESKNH

Assay [1] deals with DDK-tagged CNOT7 (UniProt Q9UIV1). In words: co-IP.
The target of assay [2] is endogenous CNOT1 (CCR4-NOT transcription complex subunit 1) (human (endogenous in HeLa and in Jurkat-derived J-Lat A1)) (UniProt A5YKK6). The experiment in a line: co-IP; endogenous immunoprecipitation (anti-TASOR, anti-CNOT1 or anti-MTR4, 4 µg antibody overnight, protein A/G magnetic beads) from the nuclear fraction of HeLa HIV-1 LTR-ΔTAR-Luc cells; western blot.
Assay [3] has as its target T1, endogenous MTR4 (human (endogenous in HeLa)) (UniProt P42285).
T1 sequence: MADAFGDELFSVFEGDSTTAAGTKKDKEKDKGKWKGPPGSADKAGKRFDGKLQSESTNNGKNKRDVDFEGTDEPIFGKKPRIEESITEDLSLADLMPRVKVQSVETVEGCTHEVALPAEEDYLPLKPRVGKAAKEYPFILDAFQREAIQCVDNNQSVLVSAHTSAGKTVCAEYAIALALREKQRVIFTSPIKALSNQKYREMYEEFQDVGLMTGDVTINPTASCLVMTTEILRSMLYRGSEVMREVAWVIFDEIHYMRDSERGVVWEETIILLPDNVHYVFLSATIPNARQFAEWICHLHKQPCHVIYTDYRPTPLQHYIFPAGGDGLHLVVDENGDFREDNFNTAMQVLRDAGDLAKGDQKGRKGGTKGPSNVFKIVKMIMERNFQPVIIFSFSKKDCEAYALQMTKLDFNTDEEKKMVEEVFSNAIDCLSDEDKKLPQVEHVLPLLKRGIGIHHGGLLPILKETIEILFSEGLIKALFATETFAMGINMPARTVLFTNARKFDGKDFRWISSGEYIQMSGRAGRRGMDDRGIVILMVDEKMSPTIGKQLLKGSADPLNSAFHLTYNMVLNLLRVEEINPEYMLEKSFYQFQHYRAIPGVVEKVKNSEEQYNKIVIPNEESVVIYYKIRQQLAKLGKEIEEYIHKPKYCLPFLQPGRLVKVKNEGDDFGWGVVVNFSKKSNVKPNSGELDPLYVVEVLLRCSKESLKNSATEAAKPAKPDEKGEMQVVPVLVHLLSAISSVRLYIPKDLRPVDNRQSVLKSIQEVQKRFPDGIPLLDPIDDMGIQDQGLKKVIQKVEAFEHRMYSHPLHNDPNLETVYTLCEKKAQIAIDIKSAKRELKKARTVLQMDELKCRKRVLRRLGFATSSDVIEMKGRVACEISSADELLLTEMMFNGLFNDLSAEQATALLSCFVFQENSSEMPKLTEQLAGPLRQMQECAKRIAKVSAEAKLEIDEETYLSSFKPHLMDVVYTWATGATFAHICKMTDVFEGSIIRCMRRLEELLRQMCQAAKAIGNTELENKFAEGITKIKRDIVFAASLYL
The description is as above.

Assay [4] deals with TASOR-DDK (pLenti-TASOR-myc-DDK) (human) (UniProt Q9UK61). In words: co-IP.
Assay [5] addresses endogenous TASOR (human (endogenous in HeLa and in Jurkat-derived J-Lat A1)) (UniProt Q9UK61). In words: co-IP; endogenous immunoprecipitation (anti-TASOR, anti-CNOT1 or anti-MTR4, 4 µg antibody overnight, protein A/G magnetic beads) from the nuclear fraction of HeLa HIV-1 LTR-ΔTAR-Luc cells; western blot.
The target of assay [6] is endogenous CNOT1 (CCR4-NOT transcription complex subunit 1) (human (endogenous in HeLa and in Jurkat-derived J-Lat A1)) (UniProt A5YKK6). Described as above. This is another data set of the same source.
Assay [7] deals with T1, endogenous MTR4 (human (endogenous in HeLa)). The assay is described as above. The source holds these as a separate data set.
Assay [8] deals with endogenous TASOR (human (endogenous in HeLa and in Jurkat-derived J-Lat A1)) (UniProt Q9UK61). Described as above. The source holds these as a separate data set.

Where two headings read alike, the source gives them in different places. No constants are given. Whether binding was seen depends on the method and setting. Binding seen in cells or lysates may run through a third protein. Some binding calls cover weakened binding; strength is not graded here.

Turning to “endogenous TASOR (from UniProt Q9UK61 1-1670)”, the binding entry in assay [1], in assay [2] and in assay [3] was “binds” in each case. Turning to “endogenous MPP8 (from UniProt Q99549 1-860)”, in assay [4], the binding result is on record as “binds”.

“endogenous CNOT7 (from UniProt Q9UIV1 1-285)”: the binding entry in assay [3] is reported as “no binding”; in assay [5], “binds”.

For the molecule “endogenous ZFC3H1 (from UniProt O60293 1-1989)”, the binding entry in assay [5] is given as “binds”.

B1: endogenous MATR3 (protein, UniProt P43243 1-847)
chain: MSKSFQQSSLSRDSQGHGRDLSAAGIGLLAAATQSLSMPASLGRMNQGTARLASLMNLGMSSSLNQQGAHSALSSASTSSHNLQSIFNIGSRGPLPLSSQHRGDADQASNILASFGLSARDLDELSRYPEDKITPENLPQILLQLKRRRTEEGPTLSYGRDGRSATREPPYRVPRDDWEEKRHFRRDSFDDRGPSLNPVLDYDHGSRSQESGYYDRMDYEDDRLRDGERCRDDSFFGETSHNYHKFDSEYERMGRGPGPLQERSLFEKKRGAPPSSNIEDFHGLLPKGYPHLCSICDLPVHSNKEWSQHINGASHSRRCQLLLEIYPEWNPDNDTGHTMGDPFMLQQSTNPAPGILGPPPPSFHLGGPAVGPRGNLGAGNGNLQGPRHMQKGRVETSRVVHIMDFQRGKNLRYQLLQLVEPFGVISNHLILNKINEAFIEMATTEDAQAAVDYYTTTPALVFGKPVRVHLSQKYKRIKKPEGKPDQKFDQKQELGRVIHLSNLPHSGYSDSAVLKLAEPYGKIKNYILMRMKSQAFIEMETREDAMAMVDHCLKKALWFQGRCVKVDLSEKYKKLVLRIPNRGIDLLKKDKSRKRSYSPDGKESPSDKKSKTDGSQKTESSTEGKEQEEKSGEDGEKDTKDDQTEQEPNMLLESEDELLVDEEEAAALLESGSSVGDETDLANLGDVASDGKKEPSDKAVKKDGSASAAAKKKLKKVDKIEELDQENEAALENGIKNEENTEPGAESSENADDPNKDTSENADGQSDENKDDYTIPDEYRIGPYQPNVPVGIDYVIPKTGFYCKLCSLFYTNEEVAKNTHCSSLPHYQKLKKFLNKLAEERRQKKET
As for B1, the binding result in assay [4] is recorded as “binds”.

B2: endogenous EXOSC10 (protein, UniProt Q01780 1-885)
chain: MAPPSTREPRVLSATSATKSDGEMVLPGFPDADSFVKFALGSVVAVTKASGGLPQFGDEYDFYRSFPGFQAFCETQGDRLLQCMSRVMQYHGCRSNIKDRSKVTELEDKFDLLVDANDVILERVGILLDEASGVNKNQQPVLPAGLQVPKTVVSSWNRKAAEYGKKAKSETFRLLHAKNIIRPQLKFREKIDNSNTPFLPKIFIKPNAQKPLPQALSKERRERPQDRPEDLDVPPALADFIHQQRTQQVEQDMFAHPYQYELNHFTPADAVLQKPQPQLYRPIEETPCHFISSLDELVELNEKLLNCQEFAVDLEHHSYRSFLGLTCLMQISTRTEDFIIDTLELRSDMYILNESLTDPAIVKVFHGADSDIEWLQKDFGLYVVNMFDTHQAARLLNLGRHSLDHLLKLYCNVDSNKQYQLADWRIRPLPEEMLSYARDDTHYLLYIYDKMRLEMWERGNGQPVQLQVVWQRSRDICLKKFIKPIFTDESYLELYRKQKKHLNTQQLTAFQLLFAWRDKTARREDESYGYVLPNHMMLKIAEELPKEPQGIIACCNPVPPLVRQQINEMHLLIQQAREMPLLKSEVAAGVKKSGPLPSAERLENVLFGPHDCSHAPPDGYPIIPTSGSVPVQKQASLFPDEKEDNLLGTTCLIATAVITLFNEPSAEDSKKGPLTVAQKKAQNIMESFENPFRMFLPSLGHRAPVSQAAKFDPSTKIYEISNRWKLAQVQVQKDSKEAVKKKAAEQTAAREQAKEACKAAAEQAISVRQQVVLENAAKKRERATSDPRTTEQKQEKKRLKISKKPKDPEPPEKEFTPYDYSQSDFKAFAGNSKSKVSSQFDPNKQTPSGKKCIAAKKIKQSVGNKSMSFPTGKSDRGFRYNWPQR
Regarding B2, the binding entry in assay [6], in assay [7] and in assay [8] was “binds” throughout.

B3: endogenous MORC2 (protein, UniProt Q9Y6X9 1-1032)
chain: MAFTNYSSLNRAQLTFEYLHTNSTTHEFLFGALAELVDNARDADATRIDIYAERREDLRGGFMLCFLDDGAGMDPSDAASVIQFGKSAKRTPESTQIGQYGNGLKSGSMRIGKDFILFTKKEDTMTCLFLSRTFHEEEGIDEVIVPLPTWNARTREPVTDNVEKFAIETELIYKYSPFRTEEEVMTQFMKIPGDSGTLVIIFNLKLMDNGEPELDIISNPRDIQMAETSPEGTKPERRSFRAYAAVLYIDPRMRIFIHGHKVQTKRLSCCLYKPRMYKYTSSRFKTRAEQEVKKAEHVARIAEEKAREAESKARTLEVRLGGDLTRDSRVMLRQVQNRAITLRREADVKKRIKEAKQRALKEPKELNFVFGVNIEHRDLDGMFIYNCSRLIKMYEKVGPQLEGGMACGGVVGVVDVPYLVLEPTHNKQDFADAKEYRHLLRAMGEHLAQYWKDIAIAQRGIIKFWDEFGYLSANWNQPPSSELRYKRRRAMEIPTTIQCDLCLKWRTLPFQLSSVEKDYPDTWVCSMNPDPEQDRCEASEQKQKVPLGTFRKDMKTQEEKQKQLTEKIRQQQEKLEALQKTTPIRSQADLKKLPLEVTTRPSTEEPVRRPQRPRSPPLPAVIRNAPSRPPSLPTPRPASQPRKAPVISSTPKLPALAAREEASTSRLLQPPEAPRKPANTLVKTASRPAPLVQQLSPSLLPNSKSPREVPSPKVIKTPVVKKTESPIKLSPATPSRKRSVAVSDEEEVEEEAERRKERCKRGRFVVKEEKKDSNELSDSAGEEDSADLKRAQKDKGLHVEVRVNREWYTGRVTAVEVGKHVVRWKVKFDYVPTDTTPRDRWVEKGSEDVRLMKPPSPEHQSLDTQQEGGEEEVGPVAQQAIAVAEPSTSECLRIEPDTTALSTNHETIDLLVQILRNCLRYFLPPSFPISKKQLSAMNSDELISFPLKEYFKQYEVGLQNLCNSYQSRADSRAKASEESLRTSERKLRETEEKLQKLRTNIVALLQKVQEDIDINTDDELDAYIEDLITKGD
Take B3: the binding entry in assay [4] is reported as “binds”.

B4: endogenous Periphilin (protein, UniProt Q8NEY8 1-458)
chain: MWSEGRYEYERIPRERAPPRSHPSDGYNRLVNIVPKKPPLLDRPGEGSYNRYYSHVDYRDYDEGRSFSHDRRSGPPHRGDESGYRWTRDDHSASRQPEYRDMRDGFRRKSFYSSHYARERSPYKRDNTFFRESPVGRKDSPHSRSGSSVSSRSYSPERSKSYSFHQSQHRKSVRPGASYKRQNEGNPERDKERPVQSLKTSRDTSPSSGSAVSSSKVLDKPSRLTEKELAEAASKWAAEKLEKSDESNLPEISEYEAGSTAPLFTDQPEEPESNTTHGIELFEDSQLTTRSKAIASKTKEIEQVYRQDCETFGMVVKMLIEKDPSLEKSIQFALRQNLHEIESAGQTWQQVPPVRNTEMDHDGTPENEGEETAQSAPQPPQAPQPLQPRKKRVRRTTQLRRTTGAPDITWGMLKKTTQEAERILLRTQTPFTPENLFLAMLSVVHCNSRKDVKPENKQ
Turning to B4, in assay [4], the binding entry was “binds”.
